# According to paper PMC4336329 (PLoS ONE, 2015):
# Among all 310,000 compounds or so, about 2,200 (0.71%) showed an effect of 50% or more. The effect is printed as a negative number. The list shows a part of the results.
# Molecular target: human ether-à-go-go-related gene (hERG) potassium channel (human, UniProt Q12809)
# Test: primary screen, population patch clamp on CHO cells stably expressing hERG
# Chain of human ether-à-go-go-related gene (hERG) potassium channel (Q12809 whole entry, looked up): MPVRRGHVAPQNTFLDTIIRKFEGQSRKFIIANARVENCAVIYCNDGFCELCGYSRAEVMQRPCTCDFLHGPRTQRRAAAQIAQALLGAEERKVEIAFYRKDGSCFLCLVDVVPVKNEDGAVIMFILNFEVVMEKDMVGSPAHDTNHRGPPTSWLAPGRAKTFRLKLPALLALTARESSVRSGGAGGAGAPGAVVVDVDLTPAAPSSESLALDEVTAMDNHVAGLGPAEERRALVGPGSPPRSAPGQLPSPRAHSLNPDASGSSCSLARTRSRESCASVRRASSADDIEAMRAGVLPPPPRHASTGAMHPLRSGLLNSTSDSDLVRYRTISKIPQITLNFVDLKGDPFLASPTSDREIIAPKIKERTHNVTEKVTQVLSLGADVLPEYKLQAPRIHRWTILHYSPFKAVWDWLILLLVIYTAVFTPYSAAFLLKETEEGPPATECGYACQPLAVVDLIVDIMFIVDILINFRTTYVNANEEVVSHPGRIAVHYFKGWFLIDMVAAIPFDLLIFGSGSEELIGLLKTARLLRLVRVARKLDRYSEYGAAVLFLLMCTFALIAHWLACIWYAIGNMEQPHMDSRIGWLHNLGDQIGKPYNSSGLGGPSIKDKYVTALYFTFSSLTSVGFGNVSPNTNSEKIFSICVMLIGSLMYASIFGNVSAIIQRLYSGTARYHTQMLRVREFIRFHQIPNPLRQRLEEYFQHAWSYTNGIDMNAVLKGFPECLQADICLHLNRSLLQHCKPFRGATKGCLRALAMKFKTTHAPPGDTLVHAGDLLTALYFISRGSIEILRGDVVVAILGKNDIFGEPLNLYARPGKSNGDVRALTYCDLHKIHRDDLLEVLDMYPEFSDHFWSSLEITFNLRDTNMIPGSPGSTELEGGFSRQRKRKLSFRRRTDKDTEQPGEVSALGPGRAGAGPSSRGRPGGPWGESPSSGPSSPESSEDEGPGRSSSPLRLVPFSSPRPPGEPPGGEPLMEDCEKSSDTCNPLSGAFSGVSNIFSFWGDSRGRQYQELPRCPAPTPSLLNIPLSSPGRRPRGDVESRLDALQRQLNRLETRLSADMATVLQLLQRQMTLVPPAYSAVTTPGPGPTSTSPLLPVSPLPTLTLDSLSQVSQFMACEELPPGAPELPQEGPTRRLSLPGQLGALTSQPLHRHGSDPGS
row,SMILES,"hERG current change (%, negative = inhibition) at 1uM"
1,O=C(c1ccccc1)c1cc(F)c(N2CCOCC2)cc1Cl,12.4%
2,CCOc1ccccc1C1C(C#N)=C(N)Nc2onc(-c3ccccc3)c21 (centres unmarked),-2.75%
3,Cc1ccc(-n2nc3c(c2NC(=O)c2ccc(F)c(F)c2)CS(=O)(=O)C3)cc1,5.26%
4,COc1ccc(CCNC(=O)C(=O)NCC2OCCN2S(=O)(=O)c2ccc(OC)c(C)c2)cc1 (centres unmarked),6.74%
5,CCOC(=O)C1=C(COC(=O)CCC(=O)c2ccc(C)cc2)NC(=O)NC1C (centres unmarked),13.8%
6,COc1ccc(N2CCN(C(=O)c3cc(=O)[nH]c4ccccc34)CC2)cc1,6.4%
7,O=C(CN1CCN(c2ccc(Cl)cc2)CC1)c1ccccc1,6.95%
8,COc1cc(C(=O)N/N=C(\C)Cc2ccccc2)cc(OC)c1OC,18.3%
9,O=C(CSc1nnc(Cn2nnc3ccccc32)o1)Nc1cccc(Cl)c1,7.59%
10,O=C(COC(=O)c1ccc(Cl)c([N+](=O)[O-])c1)NC1CCCC1,14%
11,COc1ccc(N2C(=O)C3CCCN3C2c2cc(OC)c(OC)c(OC)c2)cc1 (centres unmarked),3.17%
12,O=C(O)c1ccc(CSc2ccccn2)cc1,10.5%
13,CC(C)(C)c1ccc(NC(=O)C2CCCN(c3cnccn3)C2)cc1 (centres unmarked),10.2%
14,Cc1ccc(S(=O)(=O)N2CCCCC2)cc1C(=O)Nc1ccccn1,15.4%
15,CCn1c(SCc2nc3ccccc3[nH]2)nnc1-c1cnccn1,5.33%
16,N/C(CC(=O)Nc1ccc(F)cc1)=N\O,2.79%
17,CCc1cc2c(=O)oc(-c3ccccc3F)nc2s1,15.1%
18,COc1ccc(S(=O)(=O)NCc2ccc3c(c2)OCO3)cc1C,-8.2%
19,CSc1nnc(C)c(=O)n1COC(=O)COc1ccc(F)cc1,-6.14%
20,COc1ccc(C)cc1NC(=O)NNC(=O)C1CCC(C(C)(C)C)CC1 (centres unmarked),3.34%
21,CSC1=N/C(=C\c2ccccc2)C(=O)N1C,-0.387%
22,Cc1cc(N/N=C/c2ccc(O)c(C)c2O)nc(-c2ccccc2O)n1,9.16%
23,O=C(Nc1nnc(-c2ccccn2)o1)c1cccc(Cl)c1,3.45%

row,SMILES,"hERG current change (%, negative = inhibition) at 1uM"
1,CC1(C)CC(=O)C(C=NC(CCC(N)=O)C(=O)O)=C(O)C1 (centres unmarked),4.28%
2,Cc1cc(C)c(NC(=O)Nc2ccccc2)c(Cl)c1,0.0154%
3,O=C(Nc1ccccn1)C(NS(=O)(=O)c1cccc2nsnc12)c1ccccc1 (centres unmarked),6.27%
4,O=C(NNS(=O)(=O)c1ccccc1[N+](=O)[O-])c1cccnc1,7.44%
5,COc1cc(-c2cc3nc(C)c(C)c(=O)n3[nH]2)cc(OC)c1OC,-13.9%
6,O=C(O)Cn1c(SCCOc2ccc(Cl)cc2)nc2ccccc21,17.4%
7,Cc1n[nH]c(C)c1Cc1c(F)cccc1Cl,8.49%
8,CN(C)S(=O)(=O)c1cc(NC(=O)CN2C(=O)NC3(CCCc4ccccc43)C2=O)ccc1Cl (centres unmarked),0.0113%
9,Cc1ccc(NS(=O)(=O)c2cccc(C(=O)N3CCCCCC3)c2)cc1,10.6%
10,CS(=O)(=O)c1ccc(Cl)c(NC(=O)CN2CCCC2c2ccc3c(c2)OCCCO3)c1 (centres unmarked),2.65%
11,COc1ccc(CC(NC(C)=O)C(=O)NC2CCN(C(=O)c3ccc([N+](=O)[O-])cc3)CC2)cc1OC (centres unmarked),4.24%
12,CCN(CC)S(=O)(=O)c1cccc(C(=O)Nc2ccc(C#N)cc2)c1,-74%
13,CC(C)c1ccccc1OCC(=O)NCC(c1cccs1)N1CCOCC1 (centres unmarked),-8.48%
14,CC12CCC(c3c1nc1ccccc1[n+]3[O-])C2(C)C (centres unmarked),0.975%
15,CC1CCCC(NC(=O)c2ccncc2)C1C (centres unmarked),9.58%
16,COC(=O)CN1C(=O)[C@H]2[C@@H](c3ccc(C)o3)N3C(=O)CN(CC4CC4)C(=O)[C@@]3(Cc3ccccc3)[C@H]2C1=O,-17.4%
17,O=C(NCc1ccccn1)c1cnc2sccn2c1=O,9.6%
18,N#CCCN1CCN(C2=NC(=O)C(=C3CCCCC3)S2)CC1,-1.77%
19,CCOC(=O)c1c(C(F)(F)F)nc2ncccn12,10.7%
20,COc1cccc(CN2CCNC(=O)C2CC(=O)N(C)CCc2ccccn2)c1 (centres unmarked),5.15%
21,Cc1ccc(S(=O)(=O)c2cc3ccc(O)cc3oc2=O)cc1C,9.17%
22,COc1cc(NS(=O)(=O)c2ccc(NC(=O)COc3ccccc3C)cc2)nc(OC)n1,13.8%
23,Cc1cc2cc(CN(Cc3ccc4c(c3)OCO4)C(=O)c3cnccn3)c3nnnn3c2cc1C,2.1%

row,SMILES,"hERG current change (%, negative = inhibition) at 1uM"
1,CCOCCCNC(=O)c1ccc(NC(C)=O)cc1,-8.86%
2,COC(=O)c1ccccc1NC(=O)Cn1nc(C(F)(F)F)c2c1CCC2,-10.6%
3,CC(=O)N/C(=C\c1ccccc1)C(=O)Nc1ccccc1C,16.8%
4,Cc1ccc(C(=O)NCC(=O)OCC(=O)Nc2ccccc2C#N)s1,11.3%
5,CC(c1ccco1)N(C(=O)c1cccc(Br)c1)c1ccccn1 (centres unmarked),0.194%
6,C=CCOc1cccc(/C=C\c2nc(O)c([N+](=O)[O-])c(=O)[nH]2)c1,15%
7,CC(c1nnc(SCC(=O)Nc2sccc2C#N)n1-c1ccc(Cl)cc1)N(C)C (centres unmarked),8.41%
8,CCn1c(C)nc2cc(C(=O)N/N=C(\C)c3ccccc3O)ccc21,12.9%
9,COCCCNC(=O)CCn1c(=O)c2ccccc2n(CC(=O)Nc2ccccc2C)c1=O,12.3%
10,Brc1cccc(-c2nc(-c3ccncc3)no2)c1,12.2%
11,CN(C(=O)CSc1nnc(-c2ccc(OC(F)F)cc2)n1N)C1CCS(=O)(=O)C1 (centres unmarked),14.3%
12,O=C1C(Cl)=C(Nc2ccc3cn[nH]c3c2)C(=O)c2ccccc21,18.1%
13,NC(=O)c1ccc(NC(=O)COC(=O)CNC(=O)c2sc3ccccc3c2Cl)cc1,1.09%
14,O=C(c1ccco1)N1CCN(S(=O)(=O)c2ccc3[nH]c(=O)oc3c2)CC1,-0.805%
15,CSc1ccc(CN(C)C(C)C(=O)NCC2CCCCC2)cc1 (centres unmarked),11.8%
16,COC(=O)c1ccc(C)c(NC(=O)CCc2cc(OC)c(OC)c(OC)c2)c1,3.37%
17,CN(C)CCCOC(=O)Cc1ccc(Cl)cc1.Cl,-11.2%
18,CCN(CC)C1=NS(=O)(=O)c2cc([N+](=O)[O-])ccc21,-14.3%
19,O=C(C1CC(=O)N(c2ccc3c(c2)OCCO3)C1)N1CCN(Cc2ccccc2)CC1 (centres unmarked),0.891%
20,NS(=O)(=O)c1cccc2cccnc12,10.6%
21,O=C(NCc1ccco1)c1noc2c1CCCCC2,12.7%
22,OCc1cn(-c2ccccc2)nc1-c1ccco1,15.1%
23,CCOc1ccc(CCNC(=O)Cn2ccc3cc(S(=O)(=O)N4CCCC4)ccc32)cc1,16%

row,SMILES,"hERG current change (%, negative = inhibition) at 1uM"
1,Cc1c([N+](=O)[O-])cc(C(=O)Nc2ccc(Cc3ccncc3)cc2)cc1[N+](=O)[O-],-9.28%
2,CCCCCn1c(N)c(-c2nc3ccccc3o2)c2c([N+](=O)[O-])nn(CC)c(=O)c21,10.9%
3,COc1ccccc1N1CCN(S(=O)(=O)c2cn(C)nc2C)CC1,7.06%
4,CN(/N=C/c1cccc(Br)c1)C1=NS(=O)(=O)c2ccccc21,6.32%
5,CCN=C1SC(CC(=O)NCc2ccccc2)C(=O)N1CC (centres unmarked),11.9%
6,CCn1cc([N+](=O)[O-])c(C(=O)Nc2ccc3c(c2)OCCO3)n1,-0.934%
7,Cc1cc(NC(=O)CSc2nnc(Cc3ccccc3)o2)no1,13.3%
8,COc1cccc(CN(C(=O)/C=C/c2ccco2)C2CCS(=O)(=O)C2)c1 (centres unmarked),4.13%
9,CCOC(=O)C1(Cc2cccc(OC)c2)CCCN(C(=O)CCSC)C1 (centres unmarked),7.66%
10,Cn1c(SCc2nn[nH]n2)nc2c1c(=O)n(Cc1ccccc1Cl)c(=O)n2C,4.36%
11,Cc1cc(C)cc(NC(=S)NCCCN2CCOCC2)c1,-1.09%
12,Cc1nc(C)n(CCNS(=O)(=O)c2ccccc2)n1,16.2%
13,COc1cc(NC(=O)COc2cc(O)c3c(c2)OC(C)(C)CC3=O)cc(OC)c1,-7.91%
14,C[C@@H](NCCc1ccc(O)cc1)[C@@H](O)c1ccc(O)cc1.Cl,12%
15,COC(=O)c1ccc(COc2ccc3c(C)c(C)c(=O)oc3c2)o1,-0.357%
16,COc1ccc(N(C(C)C(=O)NN=C2CCCCCCC2)S(C)(=O)=O)cc1 (centres unmarked),3.39%
17,CC(C)CN1CCN(Cc2ccc(CN3CCCCC3)s2)CC1CCO (centres unmarked),15.3%
18,CN(C)CCN1C(=O)C2C(C(=O)Nc3cc(Cl)cc(Cl)c3)C3C=CC2(O3)C1C(=O)NC1CCCCC1 (centres unmarked),0.886%
19,Cc1ccc(-c2nc(CN(CC3CCC3)CC3CCCO3)c(C)o2)s1 (centres unmarked),-1.43%
20,Cc1ccc(S(=O)(=O)NCC(=O)N(CC(=O)NCC2CCCO2)Cc2ccc(Cl)cc2)cc1 (centres unmarked),-1.62%
